Laboratory results taken from the supplement of paper PMC3334620.
In all, about 33,000 sequences were measured (“E-score (-0.5 to 0.5)”: median about -0.016, highest 2% from about 0.32 on). The list shows a part of the results.

What follows are sequences tested against T1, Stp1 (UniProt B3LFK1) (assay: PBM E-score (8-mer binding enrichment) (E-score (-0.5 to 0.5)); higher = stronger / more preferred TF binding; most listed sequences are background and not binding sites). Settings: protein concentration: 200 nM; construct: GST-full length.
T1 sequence: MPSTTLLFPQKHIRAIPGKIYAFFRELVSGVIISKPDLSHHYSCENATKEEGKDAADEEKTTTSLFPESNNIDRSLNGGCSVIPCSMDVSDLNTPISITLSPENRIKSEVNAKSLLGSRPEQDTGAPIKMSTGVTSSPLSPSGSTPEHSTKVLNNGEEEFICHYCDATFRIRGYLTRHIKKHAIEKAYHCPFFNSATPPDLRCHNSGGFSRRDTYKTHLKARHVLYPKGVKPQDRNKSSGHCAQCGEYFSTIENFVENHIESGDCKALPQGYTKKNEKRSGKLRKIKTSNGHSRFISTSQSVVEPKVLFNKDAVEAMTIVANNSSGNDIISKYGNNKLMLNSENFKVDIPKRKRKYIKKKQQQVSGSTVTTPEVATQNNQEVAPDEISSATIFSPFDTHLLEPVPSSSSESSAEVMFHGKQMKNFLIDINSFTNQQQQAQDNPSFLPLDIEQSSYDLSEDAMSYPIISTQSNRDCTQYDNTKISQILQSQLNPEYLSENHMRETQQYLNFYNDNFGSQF
Outline: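 Masliner-normalised scans of fluorescent anti-GST signal were the basis for scoring. That signal came from GST-tagged yeast transcription factors applied at about 100-200 nM to double-stranded universal all-10-mer Agilent arrays on fresh or once-stripped slides. Each ungapped eight-base word, pooled with its reverse complement, received an E-score from the Universal PBM Analysis Suite.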

Sequence | PBM E-score
CAGATGGG | -0.222
CCTGGTAA | -0.0755
CCTAGTAG | -0.163
ATTGATAA | 0.127
CCCGACGA | -0.263
ACACGTAG | -0.0459
ACCTCACT | -0.059
CCTCGAGA | -0.0892
GAGCTTTA | -0.0656
GCGGGACC | -0.234
TAGACGGA | 0.0477
AAGCTGCT | -0.0665
AACGGGAG | -0.0705
TCACGCGA | 0.00427
GCACGCAC | 0.0208
ACACATAA | 0.122
CCCCTTAA | -0.172
TCTCGGCA | 0.045
TTTTAAAA | 0.234
AGGGGAGA | -0.374
AGTGTACA | 0.0302
CGTAGCAA | 0.211

Sequence | PBM E-score
CGCAGTCC | -0.13
GAGGCTTA | -0.0974
CTTCCAAC | -0.0447
GTGGCTTA | -0.117
CGGTAGGC | 0.0251
CAACTCGC | 0.101
CCCTCTAA | -0.131
ATAGCGAA | 0.151
GTCACAGA | -0.212
AGACGGTC | -0.0485
TGAGAGAA | 0.0963
CACGTACG | 0.157
AAAAGGTC | -0.119
CAACATGC | 0.151
CTGTTTTA | 0.0911
CGAGTGGA | -0.256
GCACCGGA | -0.0404
CCAATACC | -0.139
CTTATTTA | -0.14
TAGGCCGA | -0.243
CAACAATC | 0.136
CTTGTCCA | -0.0978

Sequence | PBM E-score
CGTCCGTA | 0.0166
ACCTAGAT | -0.159
AGTTCCAC | -0.0986
CAAAAAAA | 0.167
CATCAGCG | 0.0863
ACGTGTTC | -0.0436
TACGCTAA | 0.141
TATATGGA | -0.0992
AACCAGCC | -0.103
AGATTCAC | -0.173
ATCCAAAC | 0.096
CGGCGCGC | 0.475
CAGTTATA | -0.134
TAGTACCA | -0.0183
CGCTCGGA | 0.0526
CCAAGTGG | 0.0421
TATATTCA | 0.175
GTATTGCA | -0.0366
CCCGATAA | -0.135
TCTGTGAA | 0.0926
CAATAACG | 0.149
AACCCCTC | -0.377

Sequence | PBM E-score
ACCTTCCT | -0.158
CCGTAGAC | 0.0965
ACAGCAAG | 0.166
ACGGCCCC | 0.225
AGGGGGGC | -0.438
GAAGCGGC | 0.426
AACTAGCC | -0.052
GACGTGAA | -0.061
CTAGACAA | 0.0513
CAGGAACA | -0.328
CTAGTCGC | -0.157
AGCCAAGG | -0.138
AAAACTTA | 0.11
CCTTGCCC | 0.129
AATAACCG | -0.0201
AATTTCAG | 0.148
TCCGTCAA | 0.0115
ATAACTTG | 0.0954
ATTTACAA | -0.0107
ACGCTACA | 0.0113
